The record followed here is the supplement of paper PMC7826260.

Some of the results follow. One pool of 16,384 single-stranded DNAs met each Rep nickase domain in vitro at 3 µM enzyme and 37 °C for 1 h; the strands have 90 letters, of which the middle is given. Uncut reads are compared with the no-enzyme pool on a log2 scale; the lower, the more was cut; hits are not called. Reads are scaled to the total; where an enzyme cuts many sequences, the uncut ones exceed 0.

What all share (assay): uncleaved DNA left, log2 of reads against the no-enzyme library (log2 ratio); higher = less cleavage (more negative = more Rep cleavage of the k-mer); sequences stand for … in CTCGTCCG…ACCGGAGA
Test [1] has as its system T1, Rep nickase domain of Muscovy duck circovirus.
T1 sequence (residues 1-111, tag not shown): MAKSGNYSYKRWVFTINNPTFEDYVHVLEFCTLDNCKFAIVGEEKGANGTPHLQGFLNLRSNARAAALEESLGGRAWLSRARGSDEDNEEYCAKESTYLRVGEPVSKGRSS
As for the experimental part: (§1)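 A pool of 90-nt single-stranded DNAs with seven random bases just before the constant AC of the nick site (name = the seven bases) was cut by 3 µM recombinant His6-SUMO-tagged Rep nickase domain (300 nM DNA, 50 mM HEPES pH 8.0, 50 mM NaCl, 1 mM MnCl2, 1 h, 37 °C, three replicates). Uncut DNA was amplified and sequenced.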

The test system of test [2] is T2, Rep nickase domain of banana bunchy top virus.
T2 sequence (residues 1-94, tag not shown): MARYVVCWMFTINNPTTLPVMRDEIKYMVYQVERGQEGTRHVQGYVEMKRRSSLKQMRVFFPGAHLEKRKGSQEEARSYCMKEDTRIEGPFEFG
As for the experimental part: as §1
For test [3], the system named is T3, Rep nickase domain of cabbage leaf curl virus.
T3 sequence (residues 1-116, tag not shown): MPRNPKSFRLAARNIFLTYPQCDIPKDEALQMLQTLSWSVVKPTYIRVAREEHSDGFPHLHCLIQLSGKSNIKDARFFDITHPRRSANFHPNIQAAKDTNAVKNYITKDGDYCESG
As to the method:
as §1

Test [4] concerns T4, Rep nickase domain of chickpea chlorotic dwarf virus.
T4 sequence (residues 1-124, tag not shown): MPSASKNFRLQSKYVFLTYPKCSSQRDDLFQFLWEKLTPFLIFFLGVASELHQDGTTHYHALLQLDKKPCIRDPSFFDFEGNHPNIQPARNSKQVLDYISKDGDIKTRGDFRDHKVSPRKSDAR
As to the method: as §1
The test system of test [5] is T5, Rep nickase domain of faba bean necrotic yellows virus.
T5 sequence (residues 1-98, tag not shown): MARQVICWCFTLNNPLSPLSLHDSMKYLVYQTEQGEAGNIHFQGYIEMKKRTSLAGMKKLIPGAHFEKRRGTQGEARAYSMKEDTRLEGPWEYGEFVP
As for the experimental part:
as §1

Test [6] deals with T6, Rep nickase domain of maize striate mosaic virus.
T6 sequence (residues 1-117, tag not shown): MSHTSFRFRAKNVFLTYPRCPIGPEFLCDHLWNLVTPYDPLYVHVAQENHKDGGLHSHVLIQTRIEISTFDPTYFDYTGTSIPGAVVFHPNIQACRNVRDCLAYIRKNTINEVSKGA
As to the method: as §1
In test [7] the test system is T7, Rep nickase domain of porcine circovirus 2.
T7 sequence (residues 2-116, tag not shown): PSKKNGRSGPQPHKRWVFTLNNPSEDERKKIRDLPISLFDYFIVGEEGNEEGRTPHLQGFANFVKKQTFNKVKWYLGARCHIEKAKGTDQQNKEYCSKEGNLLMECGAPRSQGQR
As for the experimental part: as §1
The subject of test [8] is T8, Rep nickase domain of tomato yellow leaf curl virus.
T8 sequence (residues 1-136, tag not shown): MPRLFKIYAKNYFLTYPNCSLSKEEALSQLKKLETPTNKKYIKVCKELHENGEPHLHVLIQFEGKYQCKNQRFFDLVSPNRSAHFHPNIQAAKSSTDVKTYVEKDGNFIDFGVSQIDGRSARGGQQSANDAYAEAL
As to the method: as §1
The test system of test [9] is T9, Rep nickase domain of wheat dwarf virus.
T9 sequence (residues 1-137, tag not shown): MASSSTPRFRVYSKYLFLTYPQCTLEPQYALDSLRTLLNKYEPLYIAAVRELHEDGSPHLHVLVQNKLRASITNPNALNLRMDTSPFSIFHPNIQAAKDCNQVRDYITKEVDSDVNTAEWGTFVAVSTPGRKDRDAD
As for the experimental part: as §1

With CACTGCG, the “uncleaved DNA left (log2)” value in [1] was -0.0844; in [2], -0.0674; in [3] it was -0.516; in test [4] it was 1.06; in [5], -0.0421; in test [6] it was 0.296. Also, the “uncleaved DNA left (log2)” value in test [7] is 0.027; in test [8], -0.284; in test [9] it was -0.165.

Turning to CTACGCG, the “uncleaved DNA left (log2)” value in test [1] is 0.0284; in test [2], 0.137; in test [3] it was -0.815; in [4], -0.361; in test [5], 0.1; in test [6], -0.684. Moreover, the entries for the “uncleaved DNA left (log2)” value in test [7], in test [8] and in test [9] were 0.224, 0.144 and 0.0392, respectively.

In the case of GTTGCTG, the “uncleaved DNA left (log2)” value in test [1] is 0.0601; in [2], -0.0202; in [3] it was -0.228; in test [4], 0.0392; in test [5] it was -0.0229; in test [6] it was -0.0556. Besides, the entries for the “uncleaved DNA left (log2)” value in test [7], in test [8] and in test [9] were 0.111, -0.171 and -0.129, respectively.

In the case of CGGGTGA, the “uncleaved DNA left (log2)” value was -0.00479 in [1]; -0.0192 in test [2]; 0.119 in [3]; 0.584 in test [4]; 0.0128 in test [5]; 1.18 in test [6]. The results for the “uncleaved DNA left (log2)” value in test [7], in test [8] and in test [9] were 0.0057, -0.0112 and 0.00343, respectively.

Regarding GCAATCA, the “uncleaved DNA left (log2)” value is 0.000759 in [1]; 0.106 in test [2]; 0.101 in test [3]; -0.259 in [4]; -0.00666 in [5]; 0.226 in test [6]. Moreover, the “uncleaved DNA left (log2)” value came to 0.0752 in test [7], 0.126 in [8] and 0.0803 in [9].

Consider TACGCGG, for which the “uncleaved DNA left (log2)” value in test [1] was -0.0591; in [2], -0.133; in test [3], 0.262; in test [4], 0.893; in [5], -0.111; in test [6], 0.935. For the same sequence, the “uncleaved DNA left (log2)” value is 0.0374 in test [7], -0.0765 in [8] and -0.0401 in [9].

With ACCCAGT, the “uncleaved DNA left (log2)” value in test [1] was -0.00605; in test [2] it was -0.0329; in test [3], -0.295; in test [4] it was -0.535; in test [5], 0.0419; in [6] it was -0.841. In addition, the “uncleaved DNA left (log2)” value in test [7] is -0.102; in test [8], -0.0793; in test [9], -0.0747.

Take AGCAATT: the “uncleaved DNA left (log2)” value in test [1] is -0.00297; in test [2], 0.169; in test [3], -0.053; in test [4], -0.929; in test [5] it was 0.0982; in test [6] it was 0.536. Also, the figures for the “uncleaved DNA left (log2)” value in [7], in test [8] and in test [9] were -0.571, 0.0616 and 0.0173, respectively.

As to ACTCCAC, the “uncleaved DNA left (log2)” value in test [1] is 0.0948; in [2], 0.0849; in [3], -0.0514; in test [4], -0.36; in test [5], -0.0462; in test [6], -0.758. Besides, the “uncleaved DNA left (log2)” value in test [7] is 0.152; in [8], 0.0289; in [9], 0.0516.

For TAAGATC, the “uncleaved DNA left (log2)” value in test [1] is -0.096; in test [2] it was -0.185; in [3], -1.63; in test [4] it was -2.59; in [5], -0.12; in test [6], -0.378. In addition, the figures for the “uncleaved DNA left (log2)” value in test [7], in [8] and in [9] were -0.0305, -0.119 and -0.477, respectively.

As to GCTATGC, the “uncleaved DNA left (log2)” value in [1] is 0.097; in test [2], 0.0384; in test [3], -0.374; in [4], -0.132; in test [5], 0.0823; in test [6] it was -0.881. Further, the “uncleaved DNA left (log2)” value in [7] is 0.136; in [8] it was 0.0251; in test [9] it was -0.0515.

Consider GTGTCCT, for which the “uncleaved DNA left (log2)” value was -0.0868 in [1]; -0.0292 in test [2]; 0.305 in test [3]; 0.784 in test [4]; 0.00244 in [5]; 1.76 in test [6]. For the same sequence, the “uncleaved DNA left (log2)” value is -0.419 in test [7], 0.0165 in test [8] and 0.0809 in test [9].

GATTCCA: the “uncleaved DNA left (log2)” value is -0.218 in [1]; -0.113 in test [2]; 0.329 in test [3]; -0.365 in test [4]; -0.0196 in [5]; 1.09 in [6]. Further, the “uncleaved DNA left (log2)” value was -0.548 in [7], 0.0163 in test [8] and 0.0893 in [9].

GATGAAG: the “uncleaved DNA left (log2)” value in test [1] is -0.0134; in [2], 0.0414; in test [3], -0.618; in test [4], -0.383; in test [5] it was 0.188; in test [6], -0.641. The “uncleaved DNA left (log2)” value turned out to be 0.151 in test [7], 0.0503 in [8] and 0.041 in [9].

On to CCACCCT, for which the “uncleaved DNA left (log2)” value in [1] is -0.201; in [2] it was -0.0498; in test [3], -0.319; in test [4], -2.35; in [5] it was -0.017; in test [6] it was -0.509. Besides, the “uncleaved DNA left (log2)” value in test [7] is -0.85; in test [8], -0.0737; in test [9], -0.216.
